Reference: PubChem BioAssay (Tox21)
Inconclusive results, whose numbers are uncertain, are shown with a selection of clear calls. For some assays here: A potency beside an inconclusive call is a rough fit, not a confirmed value. More than one record can exist for a structure, and the calls need not agree. Activity calls are given as the source filed them. Unless noted, the call rests on the fitted dose curve; in most records, active means well fitted curve in the direction sought with a large enough effect in the repeat runs; inconclusive means weak or mixed curves; inactive means no such curve, though single readings can be large; an effect the other way counts as inactive or inconclusive.

Experiments:
[1] = qHTS assay for small molecule agonists of the p53 signaling pathway (AID 651631; calls by dose curve; further: nearly all actives have a fitted effect of over 15% in size; further: potency means the concentration at half of the fitted maximal effect; on activation: on the % scale 0 is the no-effect control and ±100 the full control effect); conditions: HCT-116 p53RE-bla reporter, beta-lactamase FRET ratio, 16 h; activation: at 73.3 µM (top of the series) unless noted
Method in brief: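 Quantitative high-throughput format: 4,000 p53RE-bla HCT-116 cells/well, 5 h pre-incubation, 16 h compound exposure at 37 °C, 2 h room-temperature substrate step, fluorescence intensity measured.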

[2] = qHTS assay for small molecule disruptors of the mitochondrial membrane potential (AID 720635); conditions: HepG2 mitochondrial membrane potential, Mito-MPS dye ratio; ratio activity, negative = MMP loss: at 83.2 µM (top of the series) unless noted; further: potency means the concentration at half of the fitted maximal effect
Method in brief: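 Mitochondrial membrane potential tracked with Mito-MPS dye, red aggregates (ex 540/em 590 nm) against green monomers (ex 490/em 535 nm). Compound treatment 1 hr at 37C, dye 30 min in HepG2.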

[3] = qHTS assay for identifying genotoxic compounds that show differential cytotoxicity against isogenic chicken DT40 cell lines with known DNA damage response pathways - Rev3 mutant cell line (AID 743014); conditions: chicken DT40 Rev3-/- viability, CellTiter-Glo, 40 h; activity, negative = cytotoxicity: at 68.4 µM (top of the series) unless noted; further: nearly all actives have a fitted effect of over 55% in size; further: potency means the concentration at half of the fitted maximal effect; on activity, negative = cytotoxicity: on the % scale 0 is the no-effect control and ±100 the full control effect
[4] = biological target: Androgen receptor (Homo sapiens) (UniProt P10275); assay: qHTS assay to identify small molecule antagonists of the androgen receptor (AR) signaling pathway (AID 743035; active means well fitted inhibition curve with a large enough effect in the signal ratio in the repeat runs, not every such curve was filed as active; inconclusive means weak or mixed curves, or effect the other way; inactive means no such curve, though single readings can be large or run the other way; the % refers to the signal ratio; further: on the % scale 0 is the no-effect control and ±100 the full control effect); conditions: HEK293 AR-UAS-bla, R1881-stimulated, beta-lactamase FRET, 16 h; activity change, negative = inhibition: at 58.5 µM (top of the series) unless noted
Chain of UniProt P10275 (P10275 whole entry, looked up): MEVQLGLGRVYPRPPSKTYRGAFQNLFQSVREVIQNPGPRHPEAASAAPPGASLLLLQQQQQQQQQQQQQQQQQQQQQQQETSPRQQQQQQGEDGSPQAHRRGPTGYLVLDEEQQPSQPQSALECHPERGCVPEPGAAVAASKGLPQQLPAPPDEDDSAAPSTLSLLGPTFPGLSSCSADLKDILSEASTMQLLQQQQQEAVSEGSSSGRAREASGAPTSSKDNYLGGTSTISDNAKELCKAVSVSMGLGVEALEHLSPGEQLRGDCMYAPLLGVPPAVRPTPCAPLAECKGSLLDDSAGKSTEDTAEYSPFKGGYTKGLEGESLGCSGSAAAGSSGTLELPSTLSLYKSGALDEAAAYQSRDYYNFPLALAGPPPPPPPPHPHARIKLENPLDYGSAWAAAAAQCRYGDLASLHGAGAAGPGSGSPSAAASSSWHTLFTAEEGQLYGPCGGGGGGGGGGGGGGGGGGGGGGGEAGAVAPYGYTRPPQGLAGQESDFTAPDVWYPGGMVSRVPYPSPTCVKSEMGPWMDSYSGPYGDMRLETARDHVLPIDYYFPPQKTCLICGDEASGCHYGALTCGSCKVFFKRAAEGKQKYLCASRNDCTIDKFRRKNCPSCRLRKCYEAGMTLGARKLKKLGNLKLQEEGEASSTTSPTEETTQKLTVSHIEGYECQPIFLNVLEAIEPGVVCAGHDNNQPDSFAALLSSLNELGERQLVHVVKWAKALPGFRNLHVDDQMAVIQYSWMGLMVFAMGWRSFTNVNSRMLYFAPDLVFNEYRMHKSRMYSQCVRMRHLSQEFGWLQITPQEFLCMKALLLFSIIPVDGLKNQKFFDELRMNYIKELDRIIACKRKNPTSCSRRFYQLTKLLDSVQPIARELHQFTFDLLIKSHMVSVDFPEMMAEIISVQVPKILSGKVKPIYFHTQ
Method in brief: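 HEK293 cells stably carrying UAS-beta-lactamase reporter, 2,000/well, given compounds plus R1881 agonist and incubated 16 h at 37C. LiveBLAzer B/G FRET substrate then added for 2 h at room temperature before fluorescence reading.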

[5] = biological target: Androgen receptor (Homo sapiens) (UniProt P10275); assay: qHTS assay to identify small molecule agonists of the androgen receptor (AR) signaling pathway (AID 743036; active means well fitted activation curve with a large enough effect in the signal ratio in the repeat runs, with a control signal flat, not every such curve was filed as active; inconclusive means weak or mixed curves, or effect the other way; inactive means no such curve, though single readings can be large or run the other way; the % refers to the signal ratio; further: potency means the concentration at half of the fitted maximal effect); conditions: HEK293 AR-UAS-bla GripTite, beta-lactamase FRET ratio, 16 h; activation: at 62.4 µM (top of the series) unless noted
Method in brief: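 Beta-lactamase under UAS control, stably integrated in HEK293 GripTite cells, reports receptor activation. After 16 h compound treatment, cells received FRET substrate for 2 h at room temperature before fluorescence reading.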

[6] = qHTS assay to identify small molecule antagonists of the androgen receptor (AR) signaling pathway using the MDA cell line - cell viability counter screen (AID 743041; further: potency means the concentration at half of the fitted maximal effect; nearly all actives have a fitted effect of over 45% in size); conditions: MDA-kb2 viability, CellTiter-Fluor, 16 h, cells co-treated with R1881 androgen agonist; viability change, negative = cytotoxic: at 70.3 µM (top of the series)
Method in brief: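 R1881-driven MDA-kb2 AR-luc cells, 3,000/well, were dosed with library compounds for 16 h; cell health came from CellTiter-Fluor fluorescence in the reporter wells.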

[7] = qHTS assay to identify small molecule antagonists of the estrogen receptor alpha (ER-alpha) signaling pathway - cell viability counter screen (AID 743074; calls by dose curve;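 further: HEK293 cells carrying ER-alpha-UAS-bla reporter stimulated with 17beta-estradiol; nearly all actives have a fitted effect of over 45% in size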; further: potency means the concentration at half of the fitted maximal effect)
[8] = qHTS assay to identify small molecule antagonists of the estrogen receptor alpha (ER-alpha) signaling pathway using the BG1 cell line - cell viability counter screen (AID 743081); conditions: BG1Luc4E2 viability, CellTiter-Fluor, 22 h; activity change, negative = cytotoxicity: at 70.3 µM (top of the series) unless noted;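 further: compound given together with 17beta-estradiol as the ER stimulus; potency means the concentration at half of the fitted maximal effect; nearly all actives have a fitted effect of over 45% in size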
[9] = biological target: Aryl hydrocarbon receptor (Homo sapiens) (UniProt P35869); assay: qHTS assay to identify small molecule that activate the aryl hydrocarbon receptor (AhR) signaling pathway (AID 743085); further: potency means the concentration at half of the fitted maximal effect; nearly all actives have a fitted effect of over 15% in size
Chain of UniProt P35869 (P35869 whole entry, looked up): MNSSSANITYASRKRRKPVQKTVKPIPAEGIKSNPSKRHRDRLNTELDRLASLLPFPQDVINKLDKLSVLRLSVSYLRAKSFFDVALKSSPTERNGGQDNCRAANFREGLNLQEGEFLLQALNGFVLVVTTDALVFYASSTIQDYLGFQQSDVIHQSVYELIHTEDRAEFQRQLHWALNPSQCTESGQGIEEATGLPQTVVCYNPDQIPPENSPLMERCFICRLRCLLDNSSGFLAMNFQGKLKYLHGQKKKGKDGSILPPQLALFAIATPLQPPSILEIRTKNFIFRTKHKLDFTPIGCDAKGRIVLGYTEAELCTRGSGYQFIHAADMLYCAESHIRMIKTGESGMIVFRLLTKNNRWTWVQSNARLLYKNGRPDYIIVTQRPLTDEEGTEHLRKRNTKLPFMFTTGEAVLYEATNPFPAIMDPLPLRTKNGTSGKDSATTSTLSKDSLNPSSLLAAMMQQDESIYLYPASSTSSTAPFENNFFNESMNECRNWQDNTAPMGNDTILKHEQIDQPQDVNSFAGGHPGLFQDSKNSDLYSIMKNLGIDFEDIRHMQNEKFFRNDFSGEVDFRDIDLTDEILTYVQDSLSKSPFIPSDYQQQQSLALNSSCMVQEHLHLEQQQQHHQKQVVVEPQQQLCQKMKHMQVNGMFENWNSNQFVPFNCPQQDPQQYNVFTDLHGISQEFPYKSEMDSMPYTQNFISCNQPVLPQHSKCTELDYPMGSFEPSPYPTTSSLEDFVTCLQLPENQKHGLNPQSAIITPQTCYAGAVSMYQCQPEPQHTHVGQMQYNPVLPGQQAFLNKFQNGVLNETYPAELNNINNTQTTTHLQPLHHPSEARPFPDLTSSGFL
Method in brief: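 24 h compound exposure, 37C, HepG2-derived HG2L7.5c1 cells with DRE-responsive luciferase. Readouts: fluorescence viability, then luminescence at room temperature after 30 min.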

[10] = biological target: Nuclear receptor subfamily 1 group I member 2 (Homo sapiens) (UniProt O75469); assay: CYP3A4 induction through human pregnane X receptor (PXR) by small molecules, qHTS assay (AID 1346984); conditions: DPX-2 HepG2 PXR, CYP3A4-luciferin luminescence, 24 h; activation: at 46.1 µM (top of the series) unless noted; further: nearly all actives have a fitted effect of over 40% in size; further: potency means the concentration at half of the fitted maximal effect
Method in brief: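 DPX-2 HepG2 cells carrying a PXR response element and CYP3A4-promoter luciferase construct, treated with compounds 24 hr at 37C. Then P450-Glo CYP3A4 Luciferin-IPA substrate (3uM final) for 3 hr at 37C, One-Glo added, luminescence read.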

[11] = biological target: Nuclear receptor subfamily 1 group I member 2 (Homo sapiens) (UniProt O75469); assay: Human pregnane X receptor (PXR) activation by small molecules, qHTS assay (AID 1346985); further: potency means the concentration at half of the fitted maximal effect; nearly all actives have a fitted effect of over 40% in size
Method in brief: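 DPX-2 cells (HepG2 co-transfected with a PXR response element and a CYP3A4-promoter luciferase construct) were seeded at 2,000 per well, rested 5 hr at 37C, then exposed to DMSO-dissolved compounds for 24 hr. Activation was read as luciferase luminescence.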

[12] = qHTS assay for small molecules that induce genotoxicity in human embryonic kidney cells expressing luciferase-tagged ATAD5 (AID 651632); further: on the % scale 0 is the no-effect control and ±100 the full control effect; nearly all actives have a fitted effect of over 15% in size
Method in brief: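 HEK293T cells carrying luciferase-tagged ATAD5 were given compound or DMSO vehicle and incubated 16 hr at 37C, 5% CO2. Luciferase activity was read after 30 min at room temperature with Amplite; a rise signals genotoxic stress.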

[13] = qHTS assay for small molecules that induce genotoxicity in human embryonic kidney cells expressing luciferase-tagged ATAD5 - cell viability (AID 651634; calls by dose curve; further: potency means the concentration at half of the fitted maximal effect; nearly all actives have a fitted effect of over 25% in size)
Method in brief: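 HEK293T cells carrying luciferase-tagged ATAD5, 2,000 cells/well, exposed to compound for 15.5 hr at 37C. Viability read as live-cell protease activity by CellTiter-Fluor fluorescence after 30 min at 37C.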

[14] = qHTS assay to identify small molecule antagonists of the glucocorticoid receptor (GR) signaling pathway - cell viability counter screen (AID 720693); conditions: GR-bla HeLa viability, CellTiter-Glo luminescence, 18 h, with 5 nM dexamethasone present; viability change, negative = cytotoxic: at 58.5 µM (top of the series); further: potency means the concentration at half of the fitted maximal effect; nearly all actives have a fitted effect of over 55% in size
[15] = qHTS assay to identify small molecule antagonists of the androgen receptor (AR) signaling pathway - cell viability counter screen (AID 743033; further: potency means the concentration at half of the fitted maximal effect; nearly all actives have a fitted effect of over 45% in size); conditions: AR-bla HEK293 viability, CellTiter-Glo luminescence, 16 h; activity change, negative = cytotoxicity: at 58.5 µM (top of the series) unless noted
[16] = test system: thyroid hormone receptor (rat, GH3 cells); assay: qHTS assay to identify small molecule agonists of the thyroid receptor (TR) signaling pathway (AID 743066; calls by dose curve; further: on the % scale 0 is the no-effect control and ±100 the full control effect); conditions: GH3.TRE-Luc cells, TR agonist luciferase, 24 h; activation: at 83.9 µM (top of the series) unless noted
[17] = biological target: Peroxisome proliferator-activated receptor gamma (Homo sapiens) (UniProt P37231); assay: qHTS assay to identify small molecule agonists of the peroxisome proliferator-activated receptor gamma (PPARg) signaling pathway (AID 743094; active means well fitted activation curve with a large enough effect in the signal ratio in the repeat runs, not every such curve was filed as active; inconclusive means weak or mixed curves, or effect the other way; inactive means no such curve, though single readings can be large or run the other way; the % refers to the signal ratio; further: potency means the concentration at half of the fitted maximal effect); conditions: HEK293H PPARg-UAS-bla, beta-lactamase FRET ratio, 17 h; activation: at 57 µM (top of the series) unless noted
Chain of UniProt P37231 (P37231 whole entry, looked up): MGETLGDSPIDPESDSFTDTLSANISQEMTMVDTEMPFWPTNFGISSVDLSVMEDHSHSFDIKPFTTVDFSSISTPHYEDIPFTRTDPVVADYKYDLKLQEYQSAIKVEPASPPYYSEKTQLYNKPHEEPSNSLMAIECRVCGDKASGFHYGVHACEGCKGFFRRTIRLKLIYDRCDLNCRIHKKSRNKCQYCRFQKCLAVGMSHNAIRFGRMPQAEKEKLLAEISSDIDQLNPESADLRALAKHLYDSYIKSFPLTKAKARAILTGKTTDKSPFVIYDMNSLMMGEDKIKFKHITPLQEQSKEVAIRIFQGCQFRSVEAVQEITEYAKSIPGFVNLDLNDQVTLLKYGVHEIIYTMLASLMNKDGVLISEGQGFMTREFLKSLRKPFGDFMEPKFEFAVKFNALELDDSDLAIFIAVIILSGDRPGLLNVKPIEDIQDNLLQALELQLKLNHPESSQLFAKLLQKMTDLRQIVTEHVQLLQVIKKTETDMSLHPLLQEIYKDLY
Method in brief: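 GeneBLAzer PPARg UAS-bla HEK293H cells were plated, rested 5 h, then exposed to compounds for 17 h at 37C. Beta-lactamase activity was read by LiveBLAzer B/G FRET substrate fluorescence after 1 h at room temperature.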
Tags describe the fitted curve by direction and shape or compound fluorescence and quenching.

SMILES: O=C1c2ccccc2C(=O)C1c1ccc(Cl)cc1
- Potency [1]: inactive
- Potency [2]: inconclusive: 29.8 µM [inhibitor, single point]
- Potency [3]: inactive
- activity change, negative = inhibition [4]: inconclusive: 0.963%
- Potency [5]: inconclusive: 6.74 µM
- Potency [6]: inconclusive: 29.8 µM [cytotoxic, partial curve, poor fit]
- Potency [7]: inactive
- Potency [8]: inconclusive: 29.8 µM [cytotoxic, partial curve, poor fit]
- Potency [9]: inconclusive: 16.8 µM [activator, full curve, poor fit]
- Potency [10]: inactive

SMILES: Cc1onc(-c2c(F)cccc2Cl)c1C(=O)N[C@@H]1C(=O)N2[C@@H]1SC(C)(C)[C@@H]2C(=O)O
- ratio activity, negative = MMP loss [2]: inconclusive: 23.3%
- Potency [10]: inconclusive: 31.6 µM [activator, single point]
- Potency [11]: active: 25.1 µM

SMILES: CC[C@@H](C(=O)[C@@H](C)[C@@H](O)[C@H](C)[C@@H]1O[C@@H]([C@@H](CC)C(=O)O)CC[C@@H]1C)[C@H]1O[C@]2(C=C[C@@H](O)[C@]3(CC[C@@](C)([C@H]4CC[C@](O)(CC)[C@H](C)O4)O3)O2)[C@H](C)C[C@@H]1C
- Potency [1]: inconclusive: 26.6 µM
- Potency [12]: inactive
- Potency [13]: active: 8.41 µM
- Potency [2]: inconclusive: 2.98 µM [activator, full curve]
- Potency [14]: inconclusive: 0.848 µM [rising, partial curve]
- Potency [3]: active: 0.944 µM
- Potency [15]: active: 1.51 µM
- Potency [6]: inconclusive: 7.84 µM [cytotoxic, full curve]
- activation [16]: inconclusive: -9.16% [phenotype inactive]
- Potency [7]: inconclusive: 2.13 µM [cytotoxic, full curve]
- Potency [8]: inconclusive: 33.5 µM [cytotoxic, single point]
- Potency [17]: inconclusive: 10.7 µM [activator, single point]
- Potency [10]: inconclusive: 4.47 µM [activator, partial curve, poor fit]
